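Compound exposure: 48 hours, 5 concentrations, 96-well plates. GI50 is the concentration that inhibits growth by half. TGI: concentration producing complete growth inhibition.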
System: NCI-H322M lung
Assay: growth of human tumour cells (NCI), 48 h

SMILES | GI50 | TGI
COC(=O)c1cccc(NC2=C(Cl)C(=O)c3nc(C)ccc3C2=O)c1 | 16 µM | 30.3 µM
CCN1C(=O)N(CC)C2C1NN=C1SC(c3ccccc3)=CC(=O)N12 (stereo not drawn) | 0.828 µM | > 100 µM
C#Cc1cc(OC)c(C(=O)Nc2ccc(F)cc2C(=O)Nc2cccc(S(=O)(=O)C(F)(F)F)c2)cn1 | 5.45 µM | > 43.1 µM
Fc1ccc(-c2cc3nc(C(Cl)Cl)nc(-c4ccccc4)n3n2)cc1 | 1.15 µM | 3.34 µM
